# Reference: the supplement of paper PMC10441789
# Some of the results follow. Antibody binding of pooled human sera (four to six donors per pool; dilution not stated) to peptides of the Trypanosoma cruzi antigen TSSA on microarrays. Quantile-normalised fluorescence in arbitrary units, mean of duplicate arrays; higher = more binding. No active / inactive call. The uninfected pools are read here as the healthy donors of the same country. The strongest signals lie near the top of the scale (about 60,000).
# Assays:
# Test in all cases: antibody binding signal (normalised fluorescence) (arbitrary fluorescence units); higher = stronger serum antibody binding to peptide
# [1] = tested on: pooled sera of chronic Chagas disease patients, Argentina
# Description: (§1)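 Microarray of 15-residue peptides over residues 30-55 of Trypanosoma cruzi TSSAII, each with 1 to 10 substitutions at naturally variable positions, probed with one serum pool per country.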
# [2] = tested on: pooled sera of chronic Chagas disease patients, Bolivia
# Description: as §1
# [3] = tested on: pooled sera of chronic Chagas disease patients, Brazil
# Description: as §1
# [4] = tested on: pooled sera of chronic Chagas disease patients, Colombia
# Description: as §1
# [5] = tested on: pooled sera of chronic Chagas disease patients, Mexico
# Description: as §1
# [6] = tested on: pooled sera of chronic Chagas disease patients, USA
# Description: as §1
# [7] = tested on: pooled sera of uninfected people, Argentina
# Description: as §1
# [8] = tested on: pooled sera of uninfected people, Bolivia
# Description: as §1
# [9] = tested on: pooled sera of uninfected people, Brazil
# Description: as §1
# [10] = tested on: pooled sera of uninfected people, Colombia
# Description: as §1
# [11] = tested on: pooled sera of uninfected people, Mexico
# Description: as §1
# [12] = tested on: pooled sera of uninfected people, USA
# Description: as §1
Sequence,antibody binding signal [1],antibody binding signal [2],antibody binding signal [3],antibody binding signal [4],antibody binding signal [5],antibody binding signal [6],antibody binding signal [7],antibody binding signal [8],antibody binding signal [9],antibody binding signal [10],antibody binding signal [11],antibody binding signal [12]
PSGKDNKTAAGETPS,4110,1830,5770,7910,6460,5660,369,416,244,281,160,179
SSTPPSGKDNKPAAG,40400,16900,30600,305,41800,13900,541,1240,230,256,423,347
EKKPATGGAPSPSGA,1420,915,1210,2490,1120,1800,451,1240,183,221,169,579
KKAATGGTPSQPGAS,332,300,285,460,193,401,339,116,269,296,197,255
PPSGKDNKAAAGETP,583,688,2700,618,3910,3550,445,833,163,308,186,220
KPAAGGAPSPSGASS,146,197,331,1540,2280,607,265,142,127,96.7,87.3,189
GKDKKAAAGGAPSQS,227,197,165,2090,731,421,113,93.6,99.3,96.9,83,91.3
PPSGKEKKAATGEAP,20900,14400,13300,2410,3150,18500,656,589,113,350,114,179
GKEKKTATGEAPSPP,12200,4420,7060,5500,7540,15200,176,94.3,107,119,92.4,94.7
TEKKPATGETPSQSG,32800,26300,32500,314,309,21200,220,414,386,187,1830,399
NKAATGETPSPSGAS,1450,3510,19900,293,511,10700,462,883,299,358,212,1710
KEKKAATGGTPSPSG,454,256,130,428,300,591,140,78.7,202,278,79.6,105
TISTPPSGTEKKAAT,31200,2390,28400,375,11000,3370,929,312,170,217,110,172
KENKTATGEAPSQSG,15300,10200,22000,619,709,22000,249,141,168,156,157,110
KENKAAAGETPSQSG,175,215,10700,184,154,2430,97.5,175,115,146,129,111
KPATGETPSPPGASS,30700,29400,30600,172,228,21400,282,735,360,163,1610,455
PPSGTENKTATGGAP,41000,42700,47900,410,3780,12900,2440,940,339,946,512,1120
GKDKKPAAGETPSQP,476,892,24400,638,1020,1700,96.5,145,83,160,89.7,102
TSSTPPSGTEKKPAT,44700,7870,43300,780,38500,11800,1330,807,293,184,200,915
SGKDKKAATGGAPSQ,588,256,627,876,1050,1060,220,270,81.2,204,84.5,83.5
SGTEKKPATGGTPSQ,5260,633,4070,2250,2310,1660,308,1350,1150,293,321,941
GKENKAAAGGAPSPS,1650,612,3180,6680,4930,8410,392,85,118,127,101,124
KENKTATGGTPSQSG,258,347,294,671,284,390,366,103,146,105,219,146
TENKTATGEAPSQSG,19900,32700,23000,104,268,22700,221,102,194,128,242,132
PSGTDKKPATGETPS,31800,22400,35100,4760,1710,23700,187,644,501,712,4730,270

Sequence,antibody binding signal [1],antibody binding signal [2],antibody binding signal [3],antibody binding signal [4],antibody binding signal [5],antibody binding signal [6],antibody binding signal [7],antibody binding signal [8],antibody binding signal [9],antibody binding signal [10],antibody binding signal [11],antibody binding signal [12]
PPSGTENKAATGGAP,46400,36100,47900,464,3480,12300,2470,933,271,873,232,1100
GTDNKPAAGGTPSPS,2150,362,40200,2350,391,389,173,1080,1560,732,559,127
SGKEKKPAAGEAPSQ,14200,4390,12400,5430,11900,14100,269,332,90.4,130,93.9,296
GTDNKAAAGETPSPS,214,332,31800,237,222,2840,134,694,804,116,384,1940
GTEKKTAAGETPSQP,394,1930,23800,451,644,2820,105,671,193,677,159,127
GKENKTATGEAPSPS,17700,18800,22300,10700,10600,26200,492,202,165,192,259,138
PSGTENKAATGGTPS,49000,24900,42200,3260,3370,11000,1170,630,514,480,528,284
SGTDKKAAAGGAPSP,272,210,1000,10600,1100,1010,235,167,154,234,459,183
TDNKPATGETPSPSG,36200,31100,35900,348,242,26500,103,474,322,161,1860,2460
TDNKTATGETPSQSG,643,1520,7130,232,241,7610,100,384,262,127,220,117
KENKPATGEAPSPPG,45100,38800,48100,311,603,37300,926,744,301,232,240,165
TPPSGKEKKPATGGT,9700,411,547,619,32700,1140,364,471,366,255,115,220
TEKKPATGETPSPSG,35600,30900,27200,361,262,21600,159,417,371,204,1690,2350
PSGTDNKPAAGEAPS,32200,20300,45200,4170,533,17200,207,703,644,442,389,205
TSSTPPSGKDNKAAA,10500,1420,4580,600,15400,2300,1130,491,129,242,89.8,373
KDNKAATGGTPSPSG,282,362,296,222,241,287,160,1540,178,178,72.5,251
ISTPPSGTDKKTATG,30500,13600,29500,6200,35600,4070,372,128,211,209,902,185
SGKDNKTAAGGTPSP,1400,239,1090,5980,941,2750,178,116,448,465,294,148
TPPSGKDNKPATGET,21200,14100,32400,230,34200,16200,473,744,337,244,2400,1990
SGKDKKTATGGAPSP,953,218,385,918,663,887,224,87.7,99,138,82.6,107
GTEKKPATGGAPSPP,5350,1000,2620,3430,3350,3890,427,1940,659,119,401,1420
KPAAGEAPSQPGASS,10100,33500,43300,142,234,11100,204,127,155,105,159,162
KDNKTATGGAPSPPG,462,245,284,1830,192,657,374,156,119,173,98.4,152
GTENKAATGGTPSQP,39000,1640,10800,1180,979,1930,264,299,301,229,1040,116
ISTPPSGTDKKAAAG,31800,13600,33700,7660,29200,4770,674,128,148,154,2070,272
